The campaign covered roughly 410,000 compounds. About 6,400 (1.6%) were called active. The inconclusive results got no clear call from the source; some entries with a clear call stand among them for comparison. Calls come from the whole dose curve; as a rule, active = well fitted inhibition curve with a large enough effect; inconclusive = small, poorly fitted or top-dose-only effect; inactive = no such curve, though single readings can be large or run the other way. Potencies of inconclusive entries are doubtful fits and often do not repeat.
target: Glucagon-like peptide 1 receptor (Homo sapiens) (UniProt P43220); test: qHTS of GLP-1 Receptor Inverse Agonists (Inhibition Mode); settings: HEK293 GLP-1R CRE-luciferase, luminescence, 24 h, GLP-1R form is constitutively active; activity change, negative = inhibition: at 38.3 µM (top of the series) unless noted; note: nearly all actives have a fitted effect of over 55% in size
How it was run: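 Inverse agonism was detected as reduced cAMP-driven luciferase luminescence after 24 h compound treatment. The cells were HEK293 clones expressing constitutively active human GLP-1R with the reporter. Reporter-only and GPR119 cell lines served as counterscreen controls.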
% is set by controls: 0 for no effect and ±100 for the full control effect; potency is the fitted concentration of half-maximal effect; tags give direction and shape of the fitted curve.

Chain of UniProt P43220 (P43220 whole entry, looked up): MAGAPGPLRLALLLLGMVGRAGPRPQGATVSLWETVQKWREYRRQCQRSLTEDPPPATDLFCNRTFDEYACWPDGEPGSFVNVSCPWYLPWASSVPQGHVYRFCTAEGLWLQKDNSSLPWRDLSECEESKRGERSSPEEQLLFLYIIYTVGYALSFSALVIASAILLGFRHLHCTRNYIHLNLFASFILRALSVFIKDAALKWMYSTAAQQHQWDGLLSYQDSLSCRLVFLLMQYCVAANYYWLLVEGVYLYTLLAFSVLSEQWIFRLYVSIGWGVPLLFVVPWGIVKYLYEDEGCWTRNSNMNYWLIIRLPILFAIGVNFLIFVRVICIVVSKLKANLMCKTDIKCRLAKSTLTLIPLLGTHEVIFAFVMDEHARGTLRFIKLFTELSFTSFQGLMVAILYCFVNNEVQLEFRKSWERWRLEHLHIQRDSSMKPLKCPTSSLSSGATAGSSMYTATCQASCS

Potency, inconclusive:
COc1cc(CN2CCC(C(=O)NC(C)(C)C)CC2)ccc1OCc1ccccc1 10 µM [inhibitor, single point]
CN(C)CCNC(=O)C(=O)NCC(c1ccc2c(c1)OCO2)N1CCN(c2ccc(F)cc2)CC1 (configuration not stated) 10 µM [inhibitor, partial curve, poor fit]
CCc1ccc(NC(=O)COc2coc(CN3CCc4ccccc4C3)cc2=O)cc1 10 µM [inhibitor, partial curve]
Cc1c(C(=O)NNC(=O)Nc2ccc([N+](=O)[O-])cc2)oc2ccccc12 31.6 µM [inhibitor, single point]
O=S(N1CCc2ccccc21)C12CC3CC(CC(C3)C1)C2 (configuration not stated) 7.94 µM [inhibitor, partial curve, poor fit]
Cc1cc(OCCCCCn2ccnc2)cc(C)c1Cl 7.08 µM [inhibitor, partial curve, poor fit]
O=C(NCc1ccc(Cl)c(Cl)c1)c1ccc2c(c1)OCO2 28.2 µM [inhibitor, single point]
COc1cccc(OCc2nc3ccccc3n2CCOc2ccc(C)cc2)c1 28.2 µM [inhibitor, single point]
COc1ccc(CC(=O)NCC2CCCN(Cc3cccc(C(F)(F)F)c3)C2)cc1 (configuration not stated) 10 µM [inhibitor, partial curve, poor fit]
O=S(=O)(NCC(c1ccco1)N1CCN(c2ccccc2F)CC1)c1ccccc1 (configuration not stated) 11.2 µM [inhibitor, partial curve, poor fit]
Cc1cccc(-n2ncc3c2CCCC3NC(=O)c2cccs2)c1C (configuration not stated) 4.47 µM [inhibitor, full curve]
CC1CCCCN1C(=O)c1cc(F)c(F)cc1Cl (configuration not stated) 14.1 µM [inhibitor, single point]
CCOC(=O)CN1C(=O)C(Sc2n[nH]c(-c3ccccc3)n2)CCc2ccccc21 (configuration not stated) 10 µM [inhibitor, single point]
CCOC(=O)C1CCCCN1Cc1ccc(-c2ccccc2)cc1 (configuration not stated) 8.91 µM [inhibitor, partial curve, poor fit]
CN(CC(=O)Nc1ccc(F)cc1)CC(=O)N1CCc2ccccc21 28.2 µM [inhibitor, single point]
Cc1ccccc1N(CC(=O)NCCSc1ccccn1)S(=O)(=O)c1ccccc1 8.91 µM [inhibitor, partial curve, poor fit]
CC(C)(C)OC(=O)N1CCC(NC(=O)c2[nH]cnc2C(=O)N[C@@H](Cc2ccccc2)C(=O)OCc2ccccc2)CC1 28.2 µM [inhibitor, single point]
COc1ccc(Cl)cc1C(=O)Nc1ccccc1N1CCN(C(=O)C(C)C)CC1 11.2 µM [inhibitor, partial curve, poor fit]
CC(C)c1cc(CN2CCN(Cc3ccc(F)c(F)c3)C(CCO)C2)[nH]n1 (configuration not stated) 28.2 µM [inhibitor, single point]
O=C(COC(=O)/C(=C/c1cccs1)c1cccs1)NC(c1ccccc1)c1ccccc1 6.31 µM [inhibitor, partial curve, poor fit]
Cc1ccccc1Nc1cc(C(=O)NCCCN2CCN(c3cccc(Cl)c3)CC2)c2ccccc2n1 7.08 µM [inhibitor, partial curve, poor fit]
OC(c1cccc(F)c1)c1ncc(-c2ccc(C(F)(F)F)cc2)[nH]1 (configuration not stated) 8.91 µM [inhibitor, partial curve, poor fit]
O=C(NCC(c1ccco1)N1CCN(c2ccc(F)cc2)CC1)C1CCCCC1 (configuration not stated) 12.6 µM [inhibitor, partial curve, poor fit]
Cc1c(CN2CCCC(C(=O)c3cccc(OC(C)C)c3)C2)c(=O)n(-c2ccccc2)n1C (configuration not stated) 2.24 µM [inhibitor, partial curve, poor fit]
CC(C)N(C(=O)Cn1cc(SCC(=O)Nc2ccccc2F)c2ccccc21)C(C)C 7.94 µM [inhibitor, partial curve, poor fit]
O=C1COc2ccc(C(=O)c3ccccc3C(=O)NCc3ccccc3)cc2N1 10 µM [inhibitor, single point]
CC1CC(C)CN(C(=O)c2cc3ccccc3o2)C1 (configuration not stated) 12.6 µM [inhibitor, partial curve, poor fit]

Potency, active:
Cc1cc(OCC(=O)Nc2ccccc2N2CCCC2)ccc1C(C)C 11.2 µM

Activity change, negative = inhibition, inactive:
COc1cccc(-n2c(=O)c3c(C)c(C)sc3n(CC(=O)NCCc3ccc(OC)c(OC)c3)c2=O)c1 -18.6%
O=C(CN1C(=O)C2C3C=CC(C3)C2C1=O)Nc1ccc(F)cc1 (configuration not stated) 10.3%
Cc1ccc(C(C)C)c(OCCSc2nc(-c3ccccc3F)nc3cc(=O)[nH]n23)c1 -5.86%
CCc1ccc(NC(=O)c2ccc(CN3CC(=O)N4CCCCC4C3=O)cc2)cc1 (configuration not stated) -4.78%
Cc1c(CCC(=O)NCCc2ccccc2)c(=O)oc2c(C)c(O)ccc12 -2.88%
O=[N+]([O-])c1ccc(N2CCOCC2)cc1O 0.724%
CCc1ccc(N2CC(C(=O)OCC(=O)NC3CC3)CC2=O)cc1 (configuration not stated) 6.25%
CCc1ccc(OCC(=O)NC(Cc2c[nH]c3ccccc23)C(=O)O)cc1 (configuration not stated) 3.44%
Cc1ccc(SCCNC(=O)c2ccc(C)c(S(=O)(=O)Nc3cccc(C)c3)c2)cc1 20.8%
CC(C)C(=O)Nc1ccc2nc(SCC(=O)N3CCCC3)sc2c1 12.9%
CCOc1ccc(C(=O)NCc2ccc3c(c2)CCN3C(=O)c2ccc(Cl)cc2)cc1 4.93%
Cc1ncsc1C(=O)N1N=C2/C(=C/c3ccc(N4CCOCC4)cc3)CCCC2C1c1ccc(N2CCOCC2)cc1 (configuration not stated) -5.01%
O=C(NC1CC(=O)N(c2cccc(F)c2)C1)c1cccs1 (configuration not stated) 7.13%
COc1cccc(-c2nc(CCl)cs2)c1 0.482%

— PubChem BioAssay AID624417 (National Center for Advancing Translational Sciences (NCATS), 2012)
